From paper PMC12136788
The list shows a part of the results.

T1: UNK ZnF1-3 (human, UniProt Q9C0B0 31-174)
T1 sequence: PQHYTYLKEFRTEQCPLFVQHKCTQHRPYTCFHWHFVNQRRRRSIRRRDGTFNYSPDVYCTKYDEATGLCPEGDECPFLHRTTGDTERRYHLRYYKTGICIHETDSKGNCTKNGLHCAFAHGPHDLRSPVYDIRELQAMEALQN

B1: 70553451_70553571_107_3pUTR_ENSMUSG00000033712_ENSMUST00000035612|mouse|control|control (ssRNA)
RNA: GGGAGUUCUACAGUCCGACGAUCACACCAGGGGGACAAAGACACCCGGAACCACCGCAGCCGCCGCUGCCACCACCACCGGAAACGCCUCUCCGGAAGAGAGACCACUGGUCGGAAGCUGCCACUCUCCCGGAUAUGGUACCUCAACAGAGGAUUGAGCAUCA
B2: chr6:40197388:40197389:+_ENSMUSG00000057716_ENSMUST00000061740|mus_mus|mus_mus_mus_hu_False|18_98 (ssRNA)
RNA: GGGAGUUCUACAGUCCGACGAUCGAGACACUGGGGUGGAUGGCACCCACCUCUGUUUGGGUGCUAGCCACUAAGACUGUUAUUUUGGGAUUCAUGGCCUUGAAUAUCAAGAGGGAAGGGACGAGAAUGGAAAGAGUCAAGAGUCAACAGAGGAUUGAGCAUCA
B3: chr18:33688888:33688889:-_ENSG00000141424_ENST00000269187|hu_hu|FALSE|FALSE (ssRNA)
RNA: GGGAGUUCUACAGUCCGACGAUCUGCUUGAAUUCAUUAAAUAUAUUUAGAUUUCUGUAUUAUACAAAGUUAAAUGUACAACUAAAUUAGUAUAUGAAAAGUGCUCACUACGUUUUUACGGGAAAUAAUCCUGACAAAAAUGUUCAACAGAGGAUUGAGCAUCA
B4: chr8:41367971:41367972:+_ENSG00000147533_ENST00000520817|hu_hu|motif|central (ssRNA)
RNA: GGGAGUUCUACAGUCCGACGAUCAAUAUACAGUAUUAUUCCUAUCAAAUUUUUUUCUCAUAAGUUAUAUUUAUAACAAAACGGUAAUUAAAAUAUUUUUUAUACCUGCUUAUUCCAUAUCCAGGGACACAGCGGGAACAUUUACAACAGAGGAUUGAGCAUCA
B5: 95067662_95069423_764_3pUTR_ENSMUSG00000015711_ENSMUST00000015855|mouse|control|control (ssRNA)
RNA: GGGAGUUCUACAGUCCGACGAUCACCUCUGCUACGGCCUCCUCCAGAGCUGCAUCGCUUUUGGGUAAAAUAUGGUGGUCAACAAGGAUGAGGGUGAGCUGGCCAGCCUGGUGCAGGGCUAGGAGGUCAAUCUCGUCCCGGAAGCAACAGAGGAUUGAGCAUCA
B6: 94014883_94016523_1437_CDS_ENSG00000137942_ENST00000370253|human|control|control (ssRNA)
RNA: GGGAGUUCUACAGUCCGACGAUCUAGAGUACCUUCAUUAUGUCCAUCAAAAGGGUAGAUAGCUUUGCAGUGUCCAAUAGCAGGCAAGGGAUCAUCAUCCUCAAAUUCAUCAUCAAACUCAUUGUGGUGACCAUGCUGCUGGGGCAACAGAGGAUUGAGCAUCA
B7: chr11:29608462:29608463:+_ENSMUSG00000020458_ENSMUST00000102843|mus_mus|FALSE|FALSE (ssRNA)
RNA: GGGAGUUCUACAGUCCGACGAUCAAGGUCACAGGGCAAUUCUGAGCAAGGCAACGAAUUGGCCCCGCUCUGGACAUUAGCAAUUUCACUUUUGUUGGAUACUUCUAGGUCAGUGUACUCCUUAGGAGAAUCAUCUUUAGCACUCAACAGAGGAUUGAGCAUCA
B8: chr2:232597714:232597715:-_ENSG00000156973_ENST00000287600|hu_hu|motif|central (ssRNA)
RNA: GGGAGUUCUACAGUCCGACGAUCGAAAAGUCUCACUCUGGAUGUGCUUACAAGAAGAUCGUCGUCAAAAAACUUUGUUUCGGUGAUAACGUUCCCAGUUAAGACGCUUGCUGGCAUCAUCUGGGACUCGGGUGCUGCCUCUAUCAACAGAGGAUUGAGCAUCA
B9: chr7:151048522:151048523:+_ENSG00000013374_ENST00000566856|hu_mus|hu_hu_hu_mus_True|38_98 (ssRNA)
RNA: GGGAGUUCUACAGUCCGACGAUCCUGUUUCUUAUUUAUGACAAUUUUGAUGUAAUUUUCUUGAAAUCCGAAAGUUUCAGCUAUUUGACACCUCAGGUCUCUGCCAGUGACAUGCAAGCGGGUCUCCAACAAGCUUUUCUUAUCCAACAGAGGAUUGAGCAUCA
B10: 69964948_69965068_5129_ncRNA_ENSMUSG00000029208_ENSMUST00000154728|mouse|control|control (ssRNA)
RNA: GGGAGUUCUACAGUCCGACGAUCUAAUCACUAUAGCAUCCUAACUUACUGUGAUAUACUAUUAAGACGCUUAGAAACCAUUGAAGAUAUGUCAGAUGUAGCAAUGAUCUUUGUCUUUGAAGCAAAACCAACAUUAUUUAGCUUCAACAGAGGAUUGAGCAUCA
B11: 96397689_96402886_1621_CDS_ENSG00000111144_ENST00000228740|human|control|control (ssRNA)
RNA: GGGAGUUCUACAGUCCGACGAUCAAGAGGUGCCCUCUGGAGCGUCUGUGCUAAAAACUCAUUCAAUUGAUGAGAAGAGAGAUCCUUCAGGUCUGUGGCAUUGAAUGAAUUUAAAUCAUCUUCUUUGGCAGUAAUCCAUCUUUGCAACAGAGGAUUGAGCAUCA
B12: chr3:142137402:142137403:-_ENSG00000114127_ENST00000264951|hu_hu|motif|central (ssRNA)
RNA: GGGAGUUCUACAGUCCGACGAUCAUCAGAUACUACGUCAACCCCCAUCUUCGUCAUGUAAUAUGUUCUUUUAUAUUGUCGGAACUCAGUUUCAAAUAGGUCAUCAUCUUCAGUCUCAUCUUCUAAAUUAUCCUUAGAAGUUAUCAACAGAGGAUUGAGCAUCA
B13: chr13:30959905:30959906:-_ENSMUSG00000021357_ENSMUST00000021785|mus_mus|FALSE|FALSE (ssRNA)
RNA: GGGAGUUCUACAGUCCGACGAUCAUGGAUGCUUCCAAACAAAUCAGGAGAAGAAACAUCAACAGAAAGAUGAGUAGUAUCUAUGUCUGCAUCAGGCUUGGUGCUCAGUUGUUCCAGGCAGUAUAUAAAAACCUGCAUGAUAUUCAACAGAGGAUUGAGCAUCA
B14: 75878501_75878621_370_3pUTR_ENSMUSG00000034098_ENSMUST00000038364|mouse|control|control (ssRNA)
RNA: GGGAGUUCUACAGUCCGACGAUCUGGGCACAUAGGGUUCCAGUGGGCGUUGCCUCCAGGUGCCCAAGCAGGCGAUCCCUUACACCCGGGGUUCAGCACCGACACUCUGUGGACAGCACCAGCUCCGCUCACGUCCAGUUUGUCCAACAGAGGAUUGAGCAUCA

What follows are binders tested against T1, UNK ZnF1-3 (assay: nsRBNS (natural sequence RNA bind-n-seq); RBNS binding buffer (assumed for nsRBNS): 25 mM Tris pH 7.5, 150 mM KCl, 3 mM MgCl2, 0.01% Triton X-100, 500 ug/ml BSA, 20 U/ml SUPERase-In, 4 C; UNK is unkempt and MSI1 is Musashi-1; names of the RNAs are library labels; protein concentration not given here; high values mean tight binding).

| Binder | binding signal |
| --- | --- |
| B1 | 0.947 enrichment R |
| B2 | 1.35 enrichment R |
| B3 | 0.847 enrichment R |
| B4 | 1.27 enrichment R |
| B5 | 1.5 enrichment R |
| B6 | 1.08 enrichment R |
| B7 | 0.492 enrichment R |
| B8 | 0.875 enrichment R |
| B9 | 0.944 enrichment R |
| B10 | 0.576 enrichment R |
| B11 | 0.854 enrichment R |
| B12 | 0.84 enrichment R |
| B13 | 1.22 enrichment R |
| B14 | 0.686 enrichment R |
